Measured values: paper PMC12820563
Some of the results follow. The list includes weakly bound sequences.

What follows are sequences tested against T1, MBP-FoxP3dN (UniProt Q99JB6) (assay: PD-seq (MBP pull-down with sequencing)). Conditions: 20 mM Tris-HCl pH 7.5, 100 mM NaCl, 1.5 mM MgCl2, 0.4 uM protein, 0.1 uM dsDNA library, 30 min, room temperature, amylose pull-down; high values mean tight binding; double strand, one strand shown.
T1 sequence: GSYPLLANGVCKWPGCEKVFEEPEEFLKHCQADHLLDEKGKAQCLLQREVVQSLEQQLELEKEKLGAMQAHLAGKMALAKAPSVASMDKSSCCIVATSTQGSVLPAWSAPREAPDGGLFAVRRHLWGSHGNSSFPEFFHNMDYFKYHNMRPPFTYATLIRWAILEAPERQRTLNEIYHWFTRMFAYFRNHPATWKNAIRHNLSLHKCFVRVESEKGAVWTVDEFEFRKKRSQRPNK

Sequence | binding signal (RPM ratio (pull-down/input))
GATGATTGTTCTCCCAGCTGATGAATTCTAGCCCTCGAGTAAACAAATTTTCCTAATCTTTCTGTTCAAGCGCCATCTAC | 0.421
GATGATTGTTCTCCCAGCTGATGAATTGAGACACTCGAGTAAACAAATTTTCCTAATCTTTCTGTTCAAGCGCCATCTAC | 1.41
GATGATTGTTCTCCCAGCTGATGAATTATATGACTCGAGTAAACAAATTTTCCTAATCTTTCTGTTCAAGCGCCATCTAC | 0.508
GATGATTGTTCTCCCAGCTGATGAATTTACCTCCTCGAGTAAACAAATTTTCCTAATCTTTCTGTTCAAGCGCCATCTAC | 0.573
GATGATTGTTCTCCCAGCTGATGAATTTTTAGTCTCGAGTAAACAAATTTTCCTAATCTTTCTGTTCAAGCGCCATCTAC | 0.297
GATGATTGTTCTCCCAGCTGATGAATTCTGCTCCTCGAGTAAACAAATTTTCCTAATCTTTCTGTTCAAGCGCCATCTAC | 0.734
GATGATTGTTCTCCCAGCTGATGAATTAGTTGCCTCGAGTAAACAAATTTTCCTAATCTTTCTGTTCAAGCGCCATCTAC | 3.87
GATGATTGTTCTCCCAGCTGATGAATTATTTATATCGAGTAAACAAATTTTCCTAATCTTTCTGTTCAAGCGCCATCTAC | 1.82
GATGATTGTTCTCCCAGCTGATGAATTTCTAGTGTCGAGTAAACAAATTTTCCTAATCTTTCTGTTCAAGCGCCATCTAC | 0.376
GATGATTGTTCTCCCAGCTGATGAATTCTTTGGGTCGAGTAAACAAATTTTCCTAATCTTTCTGTTCAAGCGCCATCTAC | 0.275
GATGATTGTTCTCCCAGCTGATGAATTCAAGAGATCGAGTAAACAAATTTTCCTAATCTTTCTGTTCAAGCGCCATCTAC | 0.187
GATGATTGTTCTCCCAGCTGATGAATTACACTACTCGAGTAAACAAATTTTCCTAATCTTTCTGTTCAAGCGCCATCTAC | 0.573
GATGATTGTTCTCCCAGCTGATGAATTTAACCAGTCGAGTAAACAAATTTTCCTAATCTTTCTGTTCAAGCGCCATCTAC | 0.194
GATGATTGTTCTCCCAGCTGATGAATTCTTCAGTTCGAGTAAACAAATTTTCCTAATCTTTCTGTTCAAGCGCCATCTAC | 0.238
GATGATTGTTCTCCCAGCTGATGAATTTATAGACTCGAGTAAACAAATTTTCCTAATCTTTCTGTTCAAGCGCCATCTAC | 0.775
GATGATTGTTCTCCCAGCTGATGAATTTTTGCGCTCGAGTAAACAAATTTTCCTAATCTTTCTGTTCAAGCGCCATCTAC | 0.598
GATGATTGTTCTCCCAGCTGATGAATTTATGAGATCGAGTAAACAAATTTTCCTAATCTTTCTGTTCAAGCGCCATCTAC | 0.368
GATGATTGTTCTCCCAGCTGATGAATTTACGAGTTCGAGTAAACAAATTTTCCTAATCTTTCTGTTCAAGCGCCATCTAC | 0.556
